# Results from PubChem BioAssay AID1461 (National Center for Advancing Translational Sciences (NCATS), 2008).
# The whole screen tested about 220,000 compounds, of which about 2,300 (1%) were called active. Inconclusive results, whose numbers are uncertain, are shown with a selection of clear calls. The call rests on the fitted dose curve; in most records, active means well fitted inhibition curve with a large enough effect; inconclusive means small, poorly fitted or top-dose-only effect, or effect the other way; inactive means no such curve, though single readings can be large or run the other way. Potencies of inconclusive entries are left out as doubtful fits.
# Target: Neuropeptide S receptor (Homo sapiens) (UniProt Q6W5P4)
# Assay: qHTS Assay for Antagonists of the Neuropeptide S Receptor: cAMP Signal Transduction; further: nearly all actives have a fitted effect of over 50% in size
# Conditions: CHO-NPSR cells, cAMP TR-FRET, antagonist mode; series mostly up to 38.3 µM
# Potency means the concentration at half of the fitted maximal effect; tags describe the fitted curve by direction and shape.
# Chain of UniProt Q6W5P4 (Q6W5P4 whole entry, looked up): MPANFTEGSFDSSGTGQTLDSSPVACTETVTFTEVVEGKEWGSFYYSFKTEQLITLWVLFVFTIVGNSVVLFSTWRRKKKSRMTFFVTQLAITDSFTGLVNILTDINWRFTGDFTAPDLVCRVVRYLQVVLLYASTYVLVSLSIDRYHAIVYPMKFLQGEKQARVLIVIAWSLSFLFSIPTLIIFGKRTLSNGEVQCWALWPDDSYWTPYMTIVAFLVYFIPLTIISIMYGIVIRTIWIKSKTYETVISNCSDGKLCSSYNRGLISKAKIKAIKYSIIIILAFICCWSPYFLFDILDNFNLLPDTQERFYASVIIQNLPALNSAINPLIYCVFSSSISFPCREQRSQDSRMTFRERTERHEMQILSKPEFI
row,SMILES,Potency
1,COCc1nc2ccccc2n1Cc1ccccc1Br,"inconclusive [inhibitor, single point]"
2,Oc1ccc(NCc2ccccc2OCc2ccccc2F)cc1,"inconclusive [inhibitor, full curve, poor fit]"
3,CCN(c1cccc(C)c1)S(=O)(=O)c1ccc(OC)c([N+](=O)[O-])c1,"inconclusive [activator, single point]"
4,Cc1cc(C(F)(F)F)nn1Cc1ccc(C(=O)NCc2ccco2)o1,inactive
5,O=C(CCN1C(=O)c2ccccc2C1=O)Nc1ccc2c(c1)OCCO2,"inconclusive [activator, partial curve, poor fit]"
6,CCOC(=O)c1cc(NC(=O)c2ccoc2C)cc(C(=O)OCC)c1,"inconclusive [inhibitor, partial curve]"
7,OCCNc1cc(-n2nc(-c3ccccc3)cc2-c2ccccc2)ncn1,"inconclusive [inhibitor, single point]"
8,CCOC(=O)N1CCN(c2ccc(C(=O)c3cccc(F)c3)cc2)CC1,"inconclusive [inhibitor, single point]"
9,Cc1ccc(-c2nn(-c3ccccc3)cc2/C=C2\SC(=S)N(CC(=O)O)C2=O)cc1,active: 12.6 µM
10,COc1ccc(-c2noc(CSc3nnc(Cc4ccccc4)n3-c3cccc(C)c3)n2)cc1OC,"inconclusive [inhibitor, partial curve]"
11,Cc1ccc(C)c(N(CC(=O)NCCSCc2ccco2)S(C)(=O)=O)c1,"inconclusive [inhibitor, single point]"
12,CC(=O)c1c(C)[nH]c(C(=O)COC(=O)c2ccc3c(=O)n4c(nc3c2)CCC4)c1C,"inconclusive [activator, single point]"
13,O=C(Nc1nc(-c2ccc(-c3ccccc3)cc2)cs1)C1=COCCO1,inactive
14,CCN(CCCNC(=O)COc1cc(=O)n(C)c2ccccc12)c1cccc(C)c1,"inconclusive [inhibitor, single point]"
15,COC(=O)c1c(NC(=O)CSc2nnc(CNc3ccc(Cl)cc3)o2)sc(C)c1C,"inconclusive [inhibitor, single point]"
16,Cc1ccc(C2CC(C(F)F)n3ncc(C(=O)Nc4cnn(Cc5ccccc5C)c4)c3N2)cc1 (stereo not drawn),"inconclusive [inhibitor, single point]"
17,COc1cccc2cc(-c3ccccc3)c(=O)oc12,inactive
18,CCCN1CCN(C(c2cc3cc(OCC)ccc3[nH]c2=O)c2nnnn2C2CCCCC2)CC1 (stereo not drawn),inactive
19,Clc1ccc(-c2nnc(-c3ccccc3)c(N3CCSCC3)n2)cc1,"inconclusive [inhibitor, single point]"
20,O=C1CC(N2CCOCC2)=NN1c1ccc([N+](=O)[O-])cc1,inactive
21,CC1=CC(C)(C)N(C(=O)CSc2nnc(-c3ccc(C)cc3)o2)c2ccc(C)cc21,"inconclusive [inhibitor, partial curve]"
22,CC(=O)c1cccc(NS(=O)(=O)c2ccc(N/C=C\C(=O)c3ccc(C)cc3)cc2)c1,"inconclusive [inhibitor, partial curve]"
23,C=CCn1cnc2scc(-c3ccc(CC)cc3)c2c1=O,"inconclusive [inhibitor, single point]"

row,SMILES,Potency
1,Cc1cccc(CSc2nn3c(=O)c(C)nnc3s2)c1,inactive
2,COC(=O)c1cc(N2C(=O)C3C(C2=O)C2(C)C=CC3(C)O2)ccc1Cl (stereo not drawn),"inconclusive [inhibitor, single point]"
3,Cc1ccc2cc(CN(CCO)Cc3nnnn3Cc3ccc(F)cc3)c(=O)[nH]c2c1,"inconclusive [inhibitor, partial curve, poor fit]"
4,CC(C)(C)c1ccc(O)c(N)c1,inactive
5,Cc1ccc(C)c(N2CCN(CCCNC(=O)Cn3cccc3C(=O)c3ccccc3C)CC2)c1,"inconclusive [inhibitor, single point]"
6,CCc1ccc(NC(=O)N(Cc2ccco2)C(C)c2cccs2)cc1 (stereo not drawn),"inconclusive [inhibitor, partial curve]"
7,COc1cc(OC)cc(-c2nc(-c3ccc(Br)cc3)no2)c1,"inconclusive [inhibitor, single point]"
8,O=C(N/N=C/c1ccc(O)cc1)c1cccc(N/N=C/c2ccc(O)cc2)c1,inactive
9,Cn1cnnc1Sc1ccc(C(=O)OCC(=O)Nc2cc(Cl)cc(Cl)c2)cc1[N+](=O)[O-],"inconclusive [inhibitor, single point]"
10,CCOC(=O)c1ccc(Nc2c(OCC)c(=O)c2=O)cc1,inactive
11,COc1cc(/C=N/NC(=O)CCN2CCN(Cc3ccccc3)CC2)cc(OC)c1OC,inactive
12,Clc1cccc(-c2nnc(SC/C=C/c3ccccc3)n2Cc2ccco2)c1,"inconclusive [inhibitor, single point]"
13,CCOCCCNc1nc2c(C)cccn2c(=O)c1/C=C1\SC(=S)N(C(C)CC)C1=O (stereo not drawn),"inconclusive [activator, partial curve]"
14,CCOC(=O)C1=C(N)N2C(=O)CSC2=C(C(=O)OC)C1,inactive
15,CC1(C)Cc2cccc(C(=O)Nc3ccc(Cl)cc3)c2O1,"inconclusive [activator, partial curve]"
16,Cc1sc2nc(SCc3nnc(-c4cccs4)o3)n(C3CCCC3)c(=O)c2c1C,"inconclusive [inhibitor, full curve, poor fit]"
17,CCO[C@H]1OC(C(=O)NCc2ccccc2)=C[C@@H](C2CCCCC2)[C@@H]1CCCO,"inconclusive [activator, single point]"
18,Cc1cccc(C)c1OCC(=O)OCC(=O)c1ccc2c(c1)NC(=O)CO2,"inconclusive [inhibitor, full curve, poor fit]"
19,COc1ccc(-c2n[nH]c(=S)n2Cc2ccco2)cc1,inactive
20,O=c1c(-c2nnc(SCc3ccc(Cl)cc3Cl)o2)cccn1Cc1ccccc1,"inconclusive [inhibitor, single point]"
21,Cc1cc(OCC(=O)N(C)C2CCCCC2)cc(C)c1Cl,"inconclusive [inhibitor, single point]"
22,COc1cccc(OC)c1C(=O)N1CCN(S(=O)(=O)c2ccccc2)CC1,inactive
23,COC1=C(c2ccccc2)C(=O)c2ccccc2C1=O,"inconclusive [inhibitor, single point]"

row,SMILES,Potency
1,COc1ccc(CCN2C(=O)c3[nH]nc(-c4ccccc4O)c3C2c2cccc(Cl)c2)cc1 (stereo not drawn),"inconclusive [inhibitor, partial curve, poor fit]"
2,FC(F)(F)COc1cc(-c2nnc(SCc3ccccc3)n2Cc2ccco2)cc(OCC(F)(F)F)n1,"inconclusive [activator, partial curve]"
3,CCCc1cnc(NCCNCC(O)COc2ccc(Cl)c(Cl)c2)nc1 (stereo not drawn),"inconclusive [activator, single point]"
4,CCCCCCCn1c2c(c(=N)c3ccccc31)CCC2,"inconclusive [activator, partial curve]"
5,NC(=S)N/N=C\c1c2ccccc2cc2ccccc12,"inconclusive [inhibitor, single point]"
6,O=C(NNc1nc2c(F)cc(F)cc2s1)C1=COCCO1,inactive
7,C=CCSc1nnc(-c2c[nH]c3ccccc23)n1CCOC,"inconclusive [activator, single point]"
8,Cc1nnc(SCC(=O)NCc2ccco2)n1-c1ccc(F)cc1,inactive
9,Cc1ccc2nc(-c3ccc(NS(=O)(=O)c4ccc(F)c(F)c4)cc3)sc2c1,inactive
10,Cn1cc(C(=O)OCC2CCN(CCNS(C)(=O)=O)CC2)c2ccccc21,"inconclusive [inhibitor, single point]"
11,CCCn1c(=O)c(C(=O)NCc2ccccn2)c(O)c2ccccc21,"inconclusive [inhibitor, single point]"
12,Cc1ccc(CSc2ccc(-c3ccc4c(c3)OCO4)nn2)cc1,inactive
13,CC(C)(C)c1ccc(CNc2cc(N3CCOCC3)ccc2[N+](=O)[O-])cc1,"inconclusive [inhibitor, single point]"
14,CCC1CCCCN1C(=O)CSc1nnc(-c2ccc3c(c2)OCCO3)o1 (stereo not drawn),inactive
15,COc1ccc(C2C(C#N)=C(N)N(Nc3ccccc3)C3=C2C(=O)CC(C)(C)C3)cc1C (stereo not drawn),"inconclusive [inhibitor, partial curve]"
16,O=C(Oc1ccc(-c2ccccc2)cc1)N1CCCCC1,"inconclusive [inhibitor, partial curve]"
17,CCOc1ccc(S(=O)(=O)n2cc(-c3ccc(F)cc3)c(N)n2)cc1,"inconclusive [inhibitor, partial curve]"
18,Cc1cc(C(F)F)n2nc(C(=O)Nc3ccccc3F)nc2n1,inactive
19,O=C(C1CCCCC1)N1CCCC(c2nc3c(nnn3Cc3ccccc3)c(=O)[nH]2)C1 (stereo not drawn),"inconclusive [inhibitor, full curve, poor fit]"
20,O=C(c1cccc(NS(=O)(=O)c2ccc(F)c(F)c2)c1)N1CCN(C(c2ccccc2)c2ccccc2)CC1,"inconclusive [inhibitor, single point]"
21,Cc1nc2c(-c3ccc(F)cc3)c(C)nn2c(C)c1CCC(=O)NCc1ccco1,"inconclusive [inhibitor, partial curve]"
22,CCC(C)N(C(=O)COC(=O)c1[nH]c(C)c(C(C)=O)c1C)C1CCS(=O)(=O)C1 (stereo not drawn),inactive
